66 compounds from PubChem BioAssay AID1508642 (National Center for Advancing Translational Sciences (NCATS), 2021) can be followed below.

About 200 (0.47%) of roughly 43,000 compounds were called active. About 12% were inconclusive and are not listed. The call rests on the fitted dose curve; in most records, active means well fitted cell-killing curve with a large enough effect; inconclusive means small, poorly fitted or top-dose-only effect, or effect the other way; inactive means flat fitted curve, though single readings scatter. The list shows a part of the results.
On the % scale 0 is the no-effect control and ±100 the full control effect.

This assay in a line: Cell viability qHTS assay in S16 Pmp22-F2sN cells. Further: nearly all actives have a fitted effect of over 65% in size. Particulars: S16 Pmp22-F2sN Schwann cells (luciferase reporters placed in the Pmp22 gene) viability, CellTiter-Glo, 24 h; at 57.5 µM (top of the series). The method, boiled down: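 Luminescence from CellTiter-Glo, read by CCD camera after a 15 min room-temperature incubation, served as the viability signal. Reporter Schwann cells (S16 Pmp22-F2sN) had been treated with pin-transferred compounds for 24 h at 37C.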
In general terms: In qHTS, concentration-response curves come from the screen itself.
For the compound `O=C(Nc1ccccc1)N(Cc1ccc2c(c1)OCO2)C1CCN(Cc2ccccc2)CC1`, the activity change, negative = cytotoxicity was inactive: -8.27%.
Regarding `O=C(Nc1ccc(F)c(Cl)c1)N(Cc1ccc2c(c1)OCO2)C1CCN(Cc2ccccc2)CC1`, the activity change, negative = cytotoxicity was inactive: -23.6%.
In the case of `Nc1c(C(=O)Nc2ccc(F)c(Cl)c2)sc2nc3c(cc12)N1CCC3CC1`, the activity change, negative = cytotoxicity is inactive: -27.4%.
Take `COc1ccc(NC(=O)CN2C(=O)C(C)N=C(c3ccccc3)c3ccccc32)cc1OC` (stereo unspecified): the activity change, negative = cytotoxicity was inactive: -8.18%.
Take `Cc1ccc(Cn2cccc(C(=O)Nc3nc4ccc(C)cc4s3)c2=O)cc1`: the activity change, negative = cytotoxicity is inactive: -2.86%.
`Cc1ccc(OCC(=O)Nc2ccc(Cl)cc2C(=O)c2ccccc2)c(Br)c1`: the activity change, negative = cytotoxicity is inactive: 18.2%.
For `COc1ccc(C(c2c(O)c3ccccc3oc2=O)c2c(C)n(C)n(-c3ccccc3)c2=O)cc1` (stereo unspecified) the value was inactive: 5.59%; for `N#Cc1cc2c(nc1SCC(=O)Nc1cccc(C(F)(F)F)c1)C1CCN2CC1`, inactive: -25.7%.
On to `CCOc1ccccc1NC(=O)c1cccn(Cc2ccccc2C)c1=O`, for which the activity change, negative = cytotoxicity is inactive: 7.9%.
Consider `CCSc1nnc(NC(=O)c2cccn(Cc3ccccc3Cl)c2=O)s1`, for which the activity change, negative = cytotoxicity is inactive: 21.9%.
As for `Cc1cccc(OCC(=O)N2CCN(Cc3cc(=O)n4nc(-c5ccccc5Cl)sc4n3)CC2)c1`, the figure is inactive: 12.1%; as for `COc1cccc(-n2c(/C=C\c3ccc(Cl)cc3)nc3ccccc3c2=O)c1`, inactive: 2.1%.
As to `c1cnc2c(c1)ncn2C1CCNCC1`, the activity change, negative = cytotoxicity is inactive: -0.833%.
For `Cc1ccc(C(C)(C)C)c(OCC(=O)Nc2ccc(Cl)cc2C(=O)c2ccccc2)c1` the value was inactive: -2.77%; for `Cc1ccc(OCC(=O)N2CCN(Cc3ccc(F)cc3)CC2)cc1`, inactive: -1.74%.
Take `Cc1cc(C)cc(NC(=O)CN2C(=O)CN=C(c3ccccc3)c3cc(Cl)ccc32)c1`: the activity change, negative = cytotoxicity was inactive: 3.73%.
With `O=C(COc1ccc(Br)cc1)Nc1ccc(Cl)cc1C(=O)c1ccccc1`, the activity change, negative = cytotoxicity is inactive: 5.55%.
As for `O=c1c2ccccc2nc(/C=C/c2cccc3ccccc23)n1-c1ccc(Cl)cc1`, the activity change, negative = cytotoxicity was inactive: -1.27%.
For `COc1cc(OC)cc(C(=O)Nc2ccc(Cl)cc2C(=O)c2ccccc2Cl)c1` the value was inactive: 1.74%; for `CCC12CN3CC(CC)(CN(C1)C3c1c(C)[nH]c(=O)[nH]c1=O)C2=O` (stereo unspecified), inactive: 7.36%; for `COc1cc2[nH]c(=O)n(-c3ccc(C)cc3)c(=O)c2cc1OC`, inactive: 6.64%.
For `CCN(CC)C(=O)c1ccc(NC(=O)COc2ccc(-c3nn(C)c(=O)c4ccccc34)cc2)cc1`, the activity change, negative = cytotoxicity was inactive: 4.21%.
Consider `Cc1ccccc1-c1nc(CN2C(=O)CN=C(c3ccccc3)c3ccccc32)c(C)o1`, for which the activity change, negative = cytotoxicity was inactive: -5.83%.
Regarding `COc1ccccc1-c1nn2c(=O)cc(CN3CCN(C(=O)COc4ccccc4Cl)CC3)nc2s1`, the activity change, negative = cytotoxicity is inactive: -1.06%.
With `CCc1ccc(-n2nc(C)c3c2NC(=O)CSC3c2ccc(C(=O)OC)cc2)cc1` (stereo unspecified), the activity change, negative = cytotoxicity was inactive: -2.55%.
`O=C(Nc1ccc(Br)cc1C(=O)c1ccccc1Cl)c1ccc(Br)cc1`: the activity change, negative = cytotoxicity is inactive: 1.63%.
As for `Cc1ccc2nc(NC(=O)c3cccn(Cc4ccccc4F)c3=O)sc2c1`, the figure is inactive: 11.3%; as for `Cc1ccc2c(=O)n(-c3cccc(Cl)c3)c(=O)[nH]c2c1`, inactive: 3.09%; as for `CCN(CC)C(=O)c1ccc(NC(=O)c2ccc(-c3nn(C)c(=O)c4ccccc34)cc2)cc1`, inactive: 26.7%.
As for `Cc1ccc(-c2nc(CN3C(=O)CN=C(c4ccccc4)c4ccccc43)c(C)o2)cc1`, the figure is inactive: -14.6%; as for `Cc1ccc(Cn2cccc(C(=O)Nc3ccc4c(c3)OCCO4)c2=O)cc1`, inactive: 3.97%.
For `COc1ccccc1C1SCC(=O)Nc2c1c(C)nn2-c1cccc(C)c1` (stereo unspecified), the activity change, negative = cytotoxicity was inactive: -3%.
As for `COc1cccc(NC(=O)c2cccn(Cc3ccccc3C)c2=O)c1`, the activity change, negative = cytotoxicity was inactive: 7.18%.
Consider `CCCC12CN3CC(C)(CN(C1)C3c1c(C)[nH]c(=O)[nH]c1=O)C2=O` (stereo unspecified), for which the activity change, negative = cytotoxicity is inactive: 6.57%.
As for `COc1ccc(Br)cc1C1SCC(=O)Nc2c1c(C)nn2-c1ccccc1C` (stereo unspecified), the figure is inactive: -0.931%; as for `CCCC1=Nc2cc(C(=O)NCCCN(CC)CC)ccc2Sc2ccccc21`, inactive: 4.18%; as for `Cc1ccc(Cn2cccc(C(=O)Nc3cc(C)on3)c2=O)cc1`, inactive: 8.47%.
As for `Cc1c(C(c2ccc(Br)cc2)c2c(O)c3ccccc3oc2=O)c(=O)n(-c2ccccc2)n1C` (stereo unspecified), the figure is inactive: -3.43%; as for `COc1ccc(OCC(=O)N2CCN(CCc3ccncc3)CC2)cc1`, inactive: 1.11%; as for `Cc1ccccc1-n1nc(C)c2c1NC(=O)CSC2c1ccc(Cl)cc1` (stereo unspecified), inactive: -24.2%.
Take `COc1ccc(NC(=O)CCc2nc(C3=CCN(Cc4cccc(Cl)c4)CC3)no2)c(OC)c1`: the activity change, negative = cytotoxicity is inactive: -27.7%.
As for `O=S1(=O)N(Cc2ccccc2Cl)CCCN1Cc1ccccc1Cl`, the figure is inactive: 2.95%; as for `O=C(Nc1ccc2c(c1)OCO2)c1cccn(Cc2cccc([N+](=O)[O-])c2)c1=O`, inactive: 2.35%; as for `Cc1ccccc1OCC(=O)N1CCN(CCc2ccccn2)CC1`, inactive: -0.566%.
As to `COc1cccc(C2SCC(=O)Nc3c2c(C)nn3-c2ccc(C)c(Cl)c2)c1OC` (stereo unspecified), the activity change, negative = cytotoxicity was inactive: -8.14%.
Regarding `O=c1c2ccccc2nc(/C=C/c2ccccc2F)n1-c1cccc(O)c1`, the activity change, negative = cytotoxicity is inactive: 7.81%.
Take `CCc1nc(SC)ncc1C(=O)Nc1ccc(Cl)cc1C(=O)c1ccccc1`: the activity change, negative = cytotoxicity was inactive: 4.21%.
Turning to `Cc1cccc(-n2nc(C)c3c2NC(=O)CSC3c2ccccc2Cl)c1` (stereo unspecified), the activity change, negative = cytotoxicity is inactive: -26.1%.
Regarding `CC(C)Cc1nc2cccnc2n1C1CCNCC1`, the activity change, negative = cytotoxicity is inactive: -38.1%.
For `Cc1ccc(NC(=O)Cn2cc(C(=O)c3ccccc3)c3ccccc32)c(C)c1`, the activity change, negative = cytotoxicity was inactive: -14.1%.
For the compound `COc1ccc(-n2c(/C=C/c3cccc(F)c3)nc3ccccc3c2=O)cc1Cl`, the activity change, negative = cytotoxicity was inactive: -2.5%.
On to `CCCCC12CN3CC(C)(CN(C1)C3c1ccccn1)C2=O` (stereo unspecified), for which the activity change, negative = cytotoxicity is inactive: 0.114%.
For the compound `Cc1ccc(OCC(=O)Nc2ccc(Cl)cc2C(=O)c2ccccc2)cc1C`, the activity change, negative = cytotoxicity was inactive: -3.26%.
`Cc1nnc(NC(=O)c2cccn(Cc3cccc(F)c3)c2=O)s1`: the activity change, negative = cytotoxicity is inactive: 3.77%.
As for `COc1ccc(OCC(=O)N2CCN(Cc3ccc(SC)cc3)CC2)cc1`, the activity change, negative = cytotoxicity is inactive: -8.44%.
Turning to `Cc1ccccc1-n1c(/C=C/c2ccc(N(C)C)cc2)nc2ccccc2c1=O`, the activity change, negative = cytotoxicity was inactive: -15.6%.
For `O=C(c1ccc2c(c1)N(Cc1ccc(F)cc1)C(=O)c1ccccc1S2)N1CCC2(CC1)OCCO2`, the activity change, negative = cytotoxicity was inactive: -8.39%.
For the compound `Cc1cccc(Cn2cccc(C(=O)Nc3ccc(F)cc3F)c2=O)c1`, the activity change, negative = cytotoxicity is inactive: 6.91%.
For `Cc1ccc(OCC(=O)N2CCN(CCc3ccncc3)CC2)cc1`, the activity change, negative = cytotoxicity was inactive: 2.71%.
Consider `CC(C)c1ccc(OCC(=O)N2CCN(CCc3ccccn3)CC2)cc1`, for which the activity change, negative = cytotoxicity is inactive: -5.85%.
For the compound `Cc1ccc(C(C)C)c(OCC(=O)N2CCN(CCc3ccncc3)CC2)c1`, the activity change, negative = cytotoxicity is inactive: -6.31%.
For the compound `Cc1ccc(C(=O)Nc2ccccc2)cc1S(=O)(=O)N1CCCC1`, the activity change, negative = cytotoxicity is inactive: 15.9%.
For `CCc1ccc(OCC(=O)N2CCN(CCc3ccncc3)CC2)cc1` the value was inactive: 5.11%.
For the compound `CCOc1ccc2nc(NC(=O)c3cccn(Cc4ccccc4Cl)c3=O)sc2c1`, the activity change, negative = cytotoxicity is inactive: 10.4%.
For `CCOc1ccc(CN(CCc2ccc3c(c2)OCO3)Cc2ccc(OC)c(Br)c2)cc1` the value was inactive: 3.46%; for `Cc1ccccc1CN1C(=O)C(C)N=C(c2ccccc2)c2ccccc21` (stereo unspecified), inactive: -21.5%.
